# Laboratory results: patent US20090111786A1, “Compounds that Prevent Macrophage Apoptosis and Uses Thereof” (priority 2004, published 2009)
# Tested on: LPS-dependent gene expression in macrophages
# Assay: Microarray analysis of LPS (TLR4)-induced apoptotic gene program
# Details: 1 μM, 16 h, then LPS 100 ng/ml 6 h
# Experimental: Inc., Farmingdale, N.Y.).
# An additional series of microarray experiments was performed to evaluate the influence of LXR activation on regulation of the apoptotic program induced by engagement of TLR4 (FIG. 4). Macrophages were incubated with GW3965 or vehicle for 16 h and then treated with LPS for 6 hours. Of 86 genes with functional annotations linked to apoptosis and expressed in at least one condition, 23 genes were altered more than 1.5-fold by LPS treatment. […] The dominant effect of LXR activation was to counter-regulate a subset of the pro-apoptotic program of gene expression induced by LPS. For example, the LXR agonist attenuated LPS-dependent downregulation of the anti-apoptotic proteins Bcl2, Bag3 and Birc1a. Conversely, LXR activation inhibited LPS-dependent induction of the pro-apoptotic factors Bax, Bak, Bcl211, and caspases 1, 3, 4/11, 7, 8 and 12.
# Macrophages were incubated with the LXR agonist GW3965 (1 μM) or vehicle for 16 h prior to treatment with LPS (100 ng/ml) for 6 h. Total RNA was subjected to microarray analysis using Codelink Mouse Uniset 1 microarrays. Relative expression levels for selected categories of pro-apoptotic and anti-apoptotic genes are illustrated. […] FIG. 4a) Anti-apoptotic members of the Bag and Bcl families. FIG. 4b) Pro-apoptotic members of the Bcl family. FIG. 4c) Members of the anti-apoptotic baculovirus IAP repeat-containing (Birc) family. […]
compound,measurement,value
O=C(O)Cc1cccc(OCCCN(Cc2cccc(C(F)(F)F)c2Cl)CC(c2ccccc2)c2ccccc2)c1 [GW3965],"LPS-dependent downregulation of anti-apoptotic proteins Bcl2, Bag3 and Birc1a",attenuated
same,"LPS-dependent induction of pro-apoptotic factors Bax, Bak, Bcl211, caspases 1, 3, 4/11, 7, 8 and 12",inhibited
